Data on 167 variants can be found in the RNAGym collection of RNA variant scans (doi:10.7554/elife.90254).

The source gives no read counts; variants with many changes may rest on few reads.

B1: OR4K15 (parent)
chain: GUUAACGGUCAUAGGCCAUGGAAACUAGGAGCACCAUUUCGCUGCCAGUGAAGAAAUGAACAAAGAAAAUCUGGGCCAGGCAGGCAUCAAAAGAAAUAGUCUUGCGCUCAACCAGAAAGUCUGUAAUCAUUUUAAGGGUA

The variants in this data set derive from B1. Kind of data set: self-cleavage, relative activity (ratio to wild type); higher = more cleavage; in vitro, sequencing; the parent is a self-cleaving ribozyme.
With C45U U57C A63G A126G, the self-cleavage came out at 1.35.
Consider A47G A68U G104A U131C, for which the self-cleavage came to 0.02.
On to C46U A60G A95C U100C, for which the self-cleavage was 2.35.
Under C45U A66U C113U stands 0.03.
Under U49C A69G A125U stands 2.08; under U49C U70C A116G, 1.36; under A47C A67U U130C, 2.07.
The value for A47G A68G A69G was 0.88; that for A47U A66G A67G A96G was 0.41.
On to U43C U124C A125G, for which the self-cleavage was determined as 0.
Regarding U43C U97C U122C, the self-cleavage stood at 1.04.
For the variant U49A A60C A98G A110G U127C U130C, the self-cleavage came to 0.02.
The value for A47G A89G A117G was 1.7.
Consider A47U U70C A118G U122C, for which the self-cleavage stood at 0.08.
Regarding U49A A59C A66G A91G U122C, the self-cleavage was 1.13.
For the variant U49C A69G A94G A111U, the self-cleavage came to 0.12.
Under C45U U102C U130G stands 1.76; under A47G A55G A67G, 0.71; under U49C A82G A96G, 0.34.
Under G50A U57C A82U stands 0.11.
The value for U49C U108C A125G U132C was 0; that for U49C A98G A111G was 0.
Turning to U49G A68G C88U A116G, the self-cleavage worked out at 1.39.
The value for C46U A82G U122A A129G was 0.14; that for U49A A90U A126G was 1.47.
The value for U43C U70C A98G U103C was 0.01; that for C46U A82U A89G was 0.25; that for A47U A56G A89U A117G was 1.11.
On to U49C A56G A60G A67G A89C, for which the self-cleavage turned out to be 1.46.
Consider A47G A82U A134G, for which the self-cleavage came out at 0.11.
Under U49G A55G A95G stands 1.01.
As for A47U U57A A60G A82U U102A, the self-cleavage stood at 0.2.
Under U49C A60G A117G U122C stands 0.75; under U49C A69G A86U U130C, 0.52.
Under U49C A54G A116C stands 0.21.
Take C46U A47C A63U U72G: the self-cleavage turned out to be 0.28.
The value for U43C U132C U133C was 1.48; that for G48A A60G A69G U108A U124C was 0.06.
The value for A47G A94G A117G was 1.25; that for U49A A51U A91U was 2.03.
Under U49A A90G U97A U131C stands 1.02; under A47U U100C A111G, 0.01.
Regarding A47G G80U A135U, the self-cleavage is 0.1.
The value for U49C A90G U108C U127A was 0.01; that for G50A A62G C128U was 1.67; that for U49A A52G C109U was 0.51.
The value for A47G U97C A111G was 0.02.
For U49A A52G A60G U100A, the self-cleavage was determined as 0.41.
The value for U43C U49A G104A was 0.04; that for A47U A63U A135G was 1.09.
As for A47G A62G G136A, the self-cleavage amounted to 1.35.
The value for A47G C81A A92G U108A was 0.
For the variant A47U A64G A118G, the self-cleavage is 0.22.
On to A47G A68G A82U, for which the self-cleavage was 0.15.
In the case of C46U A55G A98G U103C, the self-cleavage is 0.27.
The value for U49C U103C U133C was 0.79.
As for A47U G73A A82G A125G, the self-cleavage worked out at 0.04.
The value for U43G U127C U130C was 0.83; that for U49G A68G A69G A117G was 1.23.
In the case of A47U A78U A126G, the self-cleavage came out at 0.17.
A47U A59G A96G A117G: the self-cleavage was 0.95.
The value for A47G U49C A66U U103A was 0.09.
The value for U49C G65A G106A U131C U132C was 0.02.
The value for A47G A56G U132C was 0.95; that for U49C A56G U130C was 0.66; that for U49C A52U A59G G106A was 0.01.
Take A47G A54G C128A: the self-cleavage turned out to be 0.33.
Under U49C A95G U133A stands 1.41.
For A47G U72A C105U G123C, the self-cleavage came to 0.01.
Take U49G U57C A63G: the self-cleavage worked out at 0.76.
Under A47G A51U U124C stands 0.6; under U49C A56G A60G A91G G106A, 0.02; under U49A U57C U70C G93A A94G, 0.38.
Under A47G U70C U127C stands 0.24; under U49C A51G A60G, 1.25.
On to A47U U49C A114G U132C, for which the self-cleavage was determined as 0.06.
The value for G44A A60G A67G A90G was 0.53.
Under A47G U72C A90G stands 0.18; under U43C G84A A98U C101A U127A, 0.74; under A47C A92U A110G U122A, 0.08.
Turning to C46A A51U A96U, the self-cleavage was determined as 0.91.
As to A47G C77U U87A, the self-cleavage was 2.34.
For A47U A68G A86G U87A U124C, the self-cleavage worked out at 0.26.
The value for G48A A55G A69G was 0.7; that for A47G G48A A78G was 0.27.
Under U49G A52G A94G stands 1.16; under G44A A52G A92U A140G, 2.56.
The value for U49C A62G U102C A118G A129G was 0.58; that for G44A A62G U100C was 2.07; that for A47U A56G A135G was 0.54.
Regarding U43G A51G A55G U108C A110U U120G, the self-cleavage stood at 0.01.
Under U49A U57A A98G C107A stands 0.01.
Under A47G A63G A118G A126G U132C stands 0.21; under A47G G80A A96G C113U, 0; under C45U U49A U87C, 0.54.
The value for G44A A60G A94U A111G A129U was 0.01.
As to A47C U70C A90G, the self-cleavage is 0.86.
In the case of U49C A96G U100C A110G, the self-cleavage came to 0.09.
A47G A51G A68G A78G U108C: the self-cleavage was 0.02.
U49A A60G A95G U103C U120C: the self-cleavage amounted to 0.33.
The value for U49A A64U A110G was 0.11; that for A47G A64G A110G was 0.09.
Under U49A A56G A111G stands 0.05.
With U43G A68G A90G, the self-cleavage stood at 1.24.
For U49C A63G U72C A95G U100C, the self-cleavage is 0.43.
Consider A47G A52G A67G, for which the self-cleavage turned out to be 1.41.
Under A47G A63G A64G U131C stands 0.72; under G50A A52G A90G, 1.21.
The value for U49C A52G A66U U124C was 0.85.
The value for C46A U49A A67G U127C was 0.43; that for U49C U102C U122C was 0.53.
Turning to G48A A54G U57C C61G, the self-cleavage came to 1.11.
Under A47U U103C U131C stands 0.2; under A47C U100C A129G, 2.66.
The value for A47U A116U U122A U133G was 0.
As for A47U A51G U87A A92G U122C, the self-cleavage amounted to 0.64.
U49C A54G U122C U132C: the self-cleavage turned out to be 0.28.
On to A47G U57C G137A, for which the self-cleavage is 0.71.
Under U49C A68G A92G stands 0.55; under U49C A96G U122G, 2.58.
Turning to G50A A66G U131C, the self-cleavage amounted to 0.5.
The value for U49A U108C U120C was 0.
The value for U49C A52G A68G was 0.93; that for U49C A59G U87C A116G was 0.19; that for U43G A67G A116G U132C was 0.96.
Under G48A U57C U102C stands 1.98; under A47U A62G A78G U132C, 0.19; under A47G A94G A110G A125G, 0.09.
Turning to A47G U120C U130A, the self-cleavage amounted to 0.07.
Under U43C U72G G83U A90G stands 0.22; under U49C A67G A91U, 1.49; under C45G A47G A56G, 1.04.
Under A47G U97C U122C stands 0.61; under C45U A59G A86G A117C, 0.38; under A47U U72C C109A U124C A126G, 0.03.
The value for A47U A66G A95G was 1.5; that for C45U A66G A95U was 1.48.
Consider U49C A98U A125G U133A, for which the self-cleavage stood at 0.88.
In the case of U49G U100C U103A, the self-cleavage stood at 1.63.
The value for U49C U57C A135G was 0.94; that for U49C G58A A67C U100C U124C was 2.2.
The value for U43C U57C U103C was 0.14; that for A47G U49A A94G was 0.61.
Under U43C U57C U130C U132A stands 0.59; under U49C G119U A140G, 1.54.
Turning to U43G A95G U120A, the self-cleavage was 2.44.
As for A47U C109A U130C, the self-cleavage stood at 0.14.
Turning to U49C A51G A66G A68G, the self-cleavage turned out to be 0.82.
Under G48A A55G A56G U122A stands 0.72; under U49A U102A G123A, 0.68; under U43C U70C U102G, 0.09.
With U49A A64U U100C A114G, the self-cleavage amounted to 0.71.
U49A A68U A91G: the self-cleavage turned out to be 1.04.
The value for A47G A64G A82G C109A was 0.09; that for U43C G44A U87G was 0.84.
The value for U49C A59G A118G was 0.54.
In the case of A47U A90G U120C, the self-cleavage is 0.28.
With U49A A56G U130C, the self-cleavage worked out at 1.44.
The value for G48A A90G U100C U124C was 1.7; that for U49C A67G U72A A82G was 0.24; that for U49C A64G A67G A117G was 2.35.
With A47G U103C A118G, the self-cleavage was 0.19.
A47U A67C A96G: the self-cleavage was determined as 2.24.
For G50A U103A U108C U132A, the self-cleavage was found to be 0.
Under U49A A66U U87C A116G U122C stands 0.04; under A47G G79U A98U, 0.05.
As for A47U U70C U127C, the self-cleavage worked out at 0.05.
